Where two headings read alike, the source gives them in different places. At least one peptide structure holds a part that was inferred or is arguable (an end, a ring closure or a residue). Numbered stars: 1 amine (or outer) side, 2 acyl side, 3 side chain; on linkers, the order of the positions; unused ones are H or OH. Square brackets hold non-standard residues; d marks the D form. Peptide text beside a SMILES is read from it. * marks the point of attachment. Acetyl(1-adamantyl) = O=C(CC12CC3CC(CC(C3)C1)C2)*; Cyclohexylacetyl(1-SH) = O=C(CC1(S)CCCCC1)*; Ethylenediamine = C(CN[*:2])N[*:1]; Orn = NCCC[C@H](N)C(=O)O; Abu = CC[C@H](N)C(=O)O; X1 = CCC(S)(CC)CC(=O)*; Propionyl = CCC(=O)*
Assays:
[1] = test system: antidiuretic response to arginine vasopressin; format: in vivo, rats; details: for Selectivity AD/VP: antiantidiuretic versus antivasopressor potency (ratio of effective doses); for Antiantidiuretic ED (effective dose): dose reducing response to 2x units of agonist injected 20 min after antagonist to response with 1x units, intravenous
Experimental: Activity as antidiuretic agonists was determined by intravenous injection of the compounds being evaluated in ethanol-anesthesized water-loaded rats in accordance with Sawyer, Endocrinology, vol. 63 (1958) at 694. Antagonism of the antidiuretic response to subsequent injections of arginine vasopressin was tested by the method of Sawyer et al., Science, vol. 212 (1981) at 49. Antagonistic potencies were determined and expressed as "effective doses" and pA2 values. The "effective dose" is defined as the dose (in nanomoles per kilogram) that reduces the response seen from 2x units of agonist injected 20 min after the dose of antagonist to the response with 1x units of agonist. Estimated in vivo "pA2 " values represent the negative logarithms of the effective doses, divided by the estimated volume of distribution (67 ml/kg).

[2] = test system: vasopressor response to arginine vasopressin; format: in vivo; details: dose reducing response to 2x units of agonist to response with 1x units
Experimental: Antagonism to the vasopressor response was estimated in accordance with […] et al., J. Med. Chem., vol. 17 (1974) at 969. The values are expressed as pA2 values, defined as in Schild et al., Br. J. Pharmacol., vol. 2 (1947) at 189. Antagonistic potencies were determined and expressed as "effective doses" and pA2 values. The "effective dose" is defined as the dose (in nanomoles per kilogram) that reduces the response seen from 2x units of agonist injected 20 min after the dose of antagonist to the response with 1x units of agonist. Estimated in vivo "pA2 " values represent the negative logarithms of the effective doses, divided by the estimated volume of distribution (67 ml/kg).

Structure (SMILES): CCOc1ccc(C[C@@H](NC(=O)CC23CC4CC(CC(C4)C2)C3)C(=O)N[C@@H](Cc2ccccc2)C(=O)N[C@H](C(=O)N[C@@H](CC(N)=O)C(=O)N[C@@H](CCCCN)C(=O)N2CCC[C@H]2C(=O)N[C@@H](CCCNC(=N)N)C(N)=O)C(C)C)cc1 [(1-adamantyl)acetyl-D-(O-ethyl)-tyrosyl-phenylalanyl-valyl-asaparaginyl-lysyl-prolyl-argininamide] ({Acetyl(1-adamantyl)}-[dY](Et)FVNKPR-NH2)
- Selectivity AD/VP ([1]; Table 3A): 0.6
- Antiantidiuretic ED (effective dose) ([1]; Table 3A): 1.1 ± 0.2 nmol/kg
- Antivasopressor ED (effective dose) ([2]; Table 3A): 0.66 ± 0.09 nmol/kg

Structure (SMILES): CCOc1ccc(C[C@@H](NC(=O)CC23CC4CC(CC(C4)C2)C3)C(=O)N[C@@H](Cc2ccccc2)C(=O)N[C@H](C(=O)N[C@@H](CC(N)=O)C(=O)N[C@@H](CC)C(=O)N2CCC[C@H]2C(=O)N[C@@H](CCCNC(=N)N)C(=O)N[C@@H](C)C(N)=O)C(C)C)cc1 [(1-adamantyl)acetyl-D-(O-ethyl)tyrosyl-phenylalanyl-valyl-asparaginyl-(2-amino)butyryl-prolyl-arginyl-alaninamide] ({Acetyl(1-adamantyl)}-[dY](Et)FVN[Abu]PRA-NH2)
- Selectivity AD/VP ([1]; Table 3B): 0.2
- Antiantidiuretic ED (effective dose) ([1]; Table 3B): 19 ± 2 nmol/kg
- Antivasopressor ED (effective dose) ([2]; Table 3B): 4.5 ± 0.4 nmol/kg

Structure (SMILES): CCOc1ccc(C[C@@H](NC(=O)CC23CC4CC(CC(C4)C2)C3)C(=O)N[C@@H](Cc2ccccc2)C(=O)N[C@H](C(=O)N[C@@H](CC(N)=O)C(=O)N[C@@H](CC)C(=O)N2CCC[C@H]2C(=O)N[C@@H](CCCNC(=N)N)C(=O)NCC(N)=O)C(C)C)cc1 [(1-adamantyl)acetyl-D-(O-ethyl)tyrosyl-phenylalanyl-valyl-asparaginyl-(2-amino)butyryl-prolyl-arginyl-glycinamide] ({Acetyl(1-adamantyl)}-[dY](Et)FVN[Abu]PRG-NH2)
- Selectivity AD/VP ([1]; Table 3B): 2.7
- Antiantidiuretic ED (effective dose) ([1]; Table 3B): 2.1 ± 0.1 nmol/kg
- Antivasopressor ED (effective dose) ([2]; Table 3B): 5.7 ± 0.9 nmol/kg

Structure (SMILES): CCOc1ccc(C[C@@H](NC(=O)CC23CC4CC(CC(C4)C2)C3)C(=O)N[C@@H](Cc2ccccc2)C(=O)N[C@H](C(=O)N[C@@H](CC(N)=O)C(=O)N[C@@H](CC)C(=O)N2CCC[C@H]2C(=O)N[C@@H](CCCNC(=N)N)C(N)=O)C(C)C)cc1 [(1-adamantyl)acetyl-D-(O-ethyl)tyrosyl-phenylalanyl-valyl-asparaginyl-(2-amino)butyryl-prolyl-argininamide] ({Acetyl(1-adamantyl)}-[dY](Et)FVN[Abu]PR-NH2)
- Selectivity AD/VP ([1]; Table 3A): 0.6
- Antiantidiuretic ED (effective dose) ([1]; Table 3A): 4.2 ± 0.4 nmol/kg
- Antivasopressor ED (effective dose) ([2]; Table 3A): 2.6 ± 0.3 nmol/kg

Structure (SMILES): CCOc1ccc(C[C@@H](NC(=O)CC)C(=O)N[C@@H](Cc2ccccc2)C(=O)N[C@H](C(=O)N[C@@H](CC(N)=O)C(=O)N[C@@H](CC)C(=O)N2CCC[C@H]2C(=O)N[C@@H](CCCNC(=N)N)C(=O)N[C@@H](CCCNC(=N)N)C(N)=O)C(C)C)cc1 [propionyl-D-(O-ethyl)tyrosyl-phenylalanyl-valyl-asparaginyl-(2-amino)butyryl-prolyl-arginyl-argininamide] (Propionyl-[dY](Et)FVN[Abu]PRR-NH2)
- Selectivity AD/VP ([1]; Table 3B): 11
- Antiantidiuretic ED (effective dose) ([1]; Table 3B): 1.3 ± 0.2 nmol/kg
- Antivasopressor ED (effective dose) ([2]; Table 3B): 14 ± 3 nmol/kg

Structure (SMILES): CCOc1ccc(C[C@@H](NC(=O)CC23CC4CC(CC(C4)C2)C3)C(=O)N[C@@H](Cc2ccccc2)C(=O)N[C@H](C(=O)N[C@@H](CC(N)=O)C(=O)N[C@@H](CC)C(=O)N2CCC[C@H]2C(=O)N[C@H](CCCNC(=N)N)C(=O)N[C@@H](CCCNC(=N)N)C(N)=O)C(C)C)cc1 [(1-adamantyl)acetyl-D-(O-ethyl)tyrosyl-phenylalanyl-valyl-asparaginyl-(2-amino)butyryl-prolyl-D-arginyl-argininamide] ({Acetyl(1-adamantyl)}-[dY](Et)FVN[Abu]P[dR]R-NH2)
- Selectivity AD/VP ([1]; Table 3B): 2.2
- Antiantidiuretic ED (effective dose) ([1]; Table 3B): 1.0 ± 0.2 nmol/kg
- Antivasopressor ED (effective dose) ([2]; Table 3B): 2.2 ± 0.3 nmol/kg

Structure (SMILES): CCOc1ccc(C[C@@H](NC(=O)CC23CC4CC(CC(C4)C2)C3)C(=O)N[C@@H](Cc2ccccc2)C(=O)N[C@H](C(=O)N[C@@H](CC(N)=O)C(=O)N[C@@H](CCCNC(=N)N)C(=O)N2CCC[C@H]2C(=O)N[C@@H](CCCNC(=N)N)C(N)=O)C(C)C)cc1 [(1-adamantyl)acetyl-D-(O-ethyl)tyrosyl-phenylalanyl-valyl-asparaginyl-arginyl-prolyl-argininamide] ({Acetyl(1-adamantyl)}-[dY](Et)FVNRPR-NH2)
- Selectivity AD/VP ([1]; Table 3A): 0.5
- Antiantidiuretic ED (effective dose) ([1]; Table 3A): 1.4 ± 0.3 nmol/kg
- Antivasopressor ED (effective dose) ([2]; Table 3A): 0.66 ± 0.07 nmol/kg

Structure (SMILES): CCOc1ccc(C[C@@H](NC(=O)CC23CC4CC(CC(C4)C2)C3)C(=O)N[C@@H](Cc2ccccc2)C(=O)N[C@H](C(=O)N[C@@H](CC(N)=O)C(=O)N[C@@H](CC)C(=O)N2CCC[C@H]2C(=O)N[C@@H](CCCNC(=N)N)C(=O)N[C@@H](CCCNC(=N)N)C(N)=O)C(C)C)cc1 [(1-adamantyl)acetyl-D-(O-ethyl)tyrosyl-phenylalanyl-valyl-asparaginyl-(2-amino)butyryl-prolyl-arginyl-argininamide] ({Acetyl(1-adamantyl)}-[dY](Et)FVN[Abu]PRR-NH2)
- Selectivity AD/VP ([1]; Table 3B): 2.3
- Antiantidiuretic ED (effective dose) ([1]; Table 3B): 0.53 ± 0.07 nmol/kg
- Antivasopressor ED (effective dose) ([2]; Table 3B): 1.2 ± 0.2 nmol/kg

Structure (SMILES): CCOc1ccc(C[C@@H](NC(=O)CC23CC4CC(CC(C4)C2)C3)C(=O)N[C@@H](Cc2ccccc2)C(=O)N[C@H](C(=O)N[C@@H](CC(N)=O)C(=O)N[C@@H](CCCN)C(=O)N2CCC[C@H]2C(=O)N[C@@H](CCCNC(=N)N)C(N)=O)C(C)C)cc1 [(1-adamantyl)acetyl-D-(O-ethyl)tyrosyl-phenylalanyl-valyl-asparaginyl-ornithyl-prolyl-argininamide] ({Acetyl(1-adamantyl)}-[dY](Et)FVN[Orn]PR-NH2)
- Selectivity AD/VP ([1]; Table 3A): 2.9
- Antiantidiuretic ED (effective dose) ([1]; Table 3A): 1.1 ± 0.3 nmol/kg
- Antivasopressor ED (effective dose) ([2]; Table 3A): 3.2 ± 0.5 nmol/kg

Structure (SMILES): CCOc1ccc(C[C@@H](NC(=O)CC(S)(CC)CC)C(=O)N[C@@H](Cc2ccccc2)C(=O)N[C@H](C(=O)N[C@@H](CC(N)=O)C(=O)N[C@@H](CC)C(=O)N2CCC[C@H]2C(=O)N[C@@H](CCCNC(=N)N)C(=O)NCC(N)=O)C(C)C)cc1 [(3-ethyl-3-mercapto)valeroyl-D-(O-ethyl)tyrosyl-phenylalanyl-valyl-asparaginyl-(2-amino)butyryl-prolyl-arginyl-glycinamide] (X1-[dY](Et)FVN[Abu]PRG-NH2)
- Selectivity AD/VP ([1]; Table 3B): 1.3
- Antiantidiuretic ED (effective dose) ([1]; Table 3B): 6.1 ± 0.9 nmol/kg
- Antivasopressor ED (effective dose) ([2]; Table 3B): 7.8 ± 0.8 nmol/kg

Structure (SMILES): CCOc1ccc(C[C@@H](NC(=O)CC2(S)CCCCC2)C(=O)N[C@@H](Cc2ccccc2)C(=O)N[C@H](C(=O)N[C@@H](CC(N)=O)C(=O)N[C@@H](CC)C(=O)N2CCC[C@H]2C(=O)N[C@@H](CCCNC(=N)N)C(=O)NCC(N)=O)C(C)C)cc1 [(1-mercaptocyclohexyl)acetyl-D-(O-ethyl)tyrosyl-phenylalanyl-valyl-asparaginyl-(2-amino)butyryl-prolyl-arginyl-glycinamide] ({Cyclohexylacetyl(1-SH)}-[dY](Et)FVN[Abu]PRG-NH2)
- Selectivity AD/VP ([1]; Table 3B): 0.5
- Antiantidiuretic ED (effective dose) ([1]; Table 3B): 2.6 ± 0.3 nmol/kg
- Antivasopressor ED (effective dose) ([2]; Table 3B): 1.3 ± 0.2 nmol/kg

Structure (SMILES): CCOc1ccc(C[C@@H](NC(=O)CC2(S)CCCCC2)C(=O)N[C@@H](Cc2ccccc2)C(=O)N[C@H](C(=O)N[C@@H](CC(N)=O)C(=O)N[C@@H](CS)C(=O)N2CCC[C@H]2C(=O)N[C@@H](CCCNC(=N)N)C(=O)NCC(N)=O)C(C)C)cc1 [(1-mercaptocyclohexyl)acetyl-D-(O-ethyl)tyrosyl-phenylalanyl-valyl-asparaginyl-cysteinyl-prolyl-arginyl-glycinamide] ({Cyclohexylacetyl(1-SH)}-[dY](Et)FVNCPRG-NH2)
- Selectivity AD/VP ([1]; Table 3B): 0.3
- Antiantidiuretic ED (effective dose) ([1]; Table 3B): 6.2 ± 1.1 nmol/kg
- Antivasopressor ED (effective dose) ([2]; Table 3B): 2.1 ± 0.2 nmol/kg

Structure (SMILES): CCOc1ccc(C[C@@H](NC(=O)CC23CC4CC(CC(C4)C2)C3)C(=O)N[C@@H](Cc2ccccc2)C(=O)N[C@H](C(=O)N[C@@H](CC(N)=O)C(=O)N[C@@H](CC)C(=O)N2CCC[C@H]2C(=O)N[C@@H](CCCNC(=N)N)C(=O)NCCN)C(C)C)cc1 [(1-adamantyl)acetyl-D-(O-ethyl)tyrosyl-phenylalanyl-valyl-asparaginyl-(2-amino)butyryl-prolyl-arginine-N-(2-aminoethyl)amide] ({Acetyl(1-adamantyl)}-[dY](Et)FVN[Abu]PR-Ethylenediamine)
- Selectivity AD/VP ([1]; Table 3B): 2.4
- Antiantidiuretic ED (effective dose) ([1]; Table 3B): 1.4 ± 0.3 nmol/kg
- Antivasopressor ED (effective dose) ([2]; Table 3B): 3.3 ± 0.6 nmol/kg

Source: patent US5055448A, “Linear derivatives of arginine vasopressin antagonists” (Medical College of Ohio, priority 1987, dated 1991)
